From the supplement of paper PMC7125110
± gives the standard error. This sample is rich in variants without activity.

B1: glmS ribozyme (parent)
chain: AUAAAAGCGCCAGAACUACAGAAAUGUAGUUGACGAGGAGGAGGUUUAUCGAAUUUUCGGCGGAUGCCUCCAAA

What was measured:
Conditions in all cases: with glucosamine-6-phosphate
[1] = variants of: B1; assay: self-cleavage kobs at 640 uM GlcN6P; higher = faster cleavage; RNA array
In short: (§1)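 Tiles of sequenced MiSeq chips were imaged over ~14 h at 37 °C. On them, barcoded ribozyme variants had been transcribed in situ by E. coli RNA polymerase and were tracked via a hybridised Cy3 probe while glucosamine-6-phosphate (40 μM to 10 mM) in HEPES/KCl/Mg(OAc)2 buffer flowed in. Per-tile medians, normalised to baseline and to non-cleaving reference variants, were fit to one- or two-exponential decays for kobs, and weighted Michaelis–Menten fits gave kcat and KM.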

[2] = variants of: B1; assay: self-cleavage kobs at 10000 uM GlcN6P; higher = faster cleavage; RNA array
In short: as §1

[3] = variants of: B1; assay: self-cleavage kobs at 2500 uM GlcN6P; higher = faster cleavage; RNA array
In short: as §1

[4] = variants of: B1; assay: self-cleavage kobs at 160 uM GlcN6P; higher = faster cleavage; RNA array
In short: as §1

Variant | self-cleavage kobs at 640 uM GlcN6P [1] [s⁻¹] | self-cleavage kobs at 10000 uM GlcN6P [2] [s⁻¹] | self-cleavage kobs at 2500 uM GlcN6P [3] [s⁻¹] | self-cleavage kobs at 160 uM GlcN6P [4] [s⁻¹]
G41U U45G U47A C71U | 5.62e-05 ± 2.2e-05 | – | – | –
A14G U45C C50A | < 1e-05 | – | – | –
A36G U47G | < 1e-05 | < 1e-05 | – | –
A48G C58A G62A | < 1e-05 | – | < 1e-05 | –
G13C C16U A36G U69C | < 1e-05 | – | – | –
U46A U54G C70G | 0.000291 ± 6.7e-05 | 0.000127 ± 2.9e-05 | 0.000305 ± 6.4e-05 | 6.23e-05 ± 2e-05
G13U A42C U54A U55G | < 1e-05 | – | < 1e-05 | < 1e-05
G32C G44A A48U | < 1e-05 | – | < 1e-05 | < 1e-05
G32U G44U C50U G60A | < 1e-05 | – | – | –
A48C G59C C71U | < 1e-05 | – | – | < 1e-05
G35C U47A A48C | < 1e-05 | – | < 1e-05 | –
G44C U56A C61U | < 1e-05 | – | – | < 1e-05
U31G A42G G43C | < 1e-05 | – | < 1e-05 | < 1e-05
G40A A42U U49C C58G A64G C70G | < 1e-05 | – | < 1e-05 | < 1e-05
G40A G60A U65A | < 1e-05 | – | < 1e-05 | < 1e-05
A36G G38U U56G | < 1e-05 | – | – | < 1e-05
G29A G51C G59C | < 1e-05 | – | – | –
G13A G32C A36U G37C G40C U45C | < 1e-05 | – | < 1e-05 | –
A36C A39G G62C | < 1e-05 | – | – | –
U31G G41C G44U C50G | < 1e-05 | – | < 1e-05 | < 1e-05

Variant | self-cleavage kobs at 640 uM GlcN6P [1] [s⁻¹] | self-cleavage kobs at 10000 uM GlcN6P [2] [s⁻¹] | self-cleavage kobs at 2500 uM GlcN6P [3] [s⁻¹] | self-cleavage kobs at 160 uM GlcN6P [4] [s⁻¹]
A39C A52G C61G | < 1e-05 | – | – | < 1e-05
C16G U65G | 0.000149 ± 6.2e-05 | 0.00143 ± 0.00036 | 0.000455 ± 0.00013 | 6.11e-05 ± 1.6e-05
C16A C50G U55C G63C C70G | 0.00119 ± 0.00038 | – | – | 0.000129 ± 4.7e-05
G37A G40A C58A | < 1e-05 | – | – | –
A14G G62A U65G | < 1e-05 | – | < 1e-05 | –
G13U A33U A53G C58U G59A | < 1e-05 | < 1e-05 | – | –
G13C C34G G35C A52C | < 1e-05 | – | < 1e-05 | –
U31G G41A U46G | 7.29e-05 ± 2.3e-05 | – | – | –
C34A G38C A53C | < 1e-05 | – | – | –
U47A G63C | < 1e-05 | – | < 1e-05 | < 1e-05
G37C G62U C68U | < 1e-05 | – | < 1e-05 | –
C16U U65C | 0.000152 ± 2.2e-05 | 0.000697 ± 0.00011 | 0.000332 ± 6.8e-05 | 8.27e-05 ± 1.8e-05
A14U U46C C70U | 0.000206 ± 5e-05 | – | – | –
U27G A28U U30G C68A | < 1e-05 | – | < 1e-05 | –
G29U G32U C58U C67A | 3.68e-05 ± 1.8e-05 | – | 8.93e-05 ± 2.6e-05 | –
A33U A48C G62U | < 1e-05 | – | < 1e-05 | < 1e-05
A14C G35C A39C | < 1e-05 | – | – | –
G13A G43A C50G C61G | < 1e-05 | – | – | –
A14U U30C G43A | < 1e-05 | – | < 1e-05 | < 1e-05
G13U A33G G59U U69A | < 1e-05 | – | – | –

Variant | self-cleavage kobs at 640 uM GlcN6P [1] [s⁻¹] | self-cleavage kobs at 10000 uM GlcN6P [2] [s⁻¹] | self-cleavage kobs at 2500 uM GlcN6P [3] [s⁻¹] | self-cleavage kobs at 160 uM GlcN6P [4] [s⁻¹]
G13U G29A G40A U65G | < 1e-05 | – | – | –
G38U U65G C70U | < 1e-05 | – | – | < 1e-05
A14C C58U G62C | < 1e-05 | – | – | –
A14U A39G G43A | < 1e-05 | – | – | < 1e-05
A14U G40U U47A A64C | < 1e-05 | – | – | –
G32C U49A C50G | < 1e-05 | – | < 1e-05 | < 1e-05
A15U C68G | 2.81e-05 ± 1.4e-05 | – | 4.48e-05 ± 1e-05 | –
G29C G43A | < 1e-05 | – | – | –
G32A G40U A48U | < 1e-05 | – | – | –
A15U G44U U49C | < 1e-05 | – | < 1e-05 | –
A42C U49C | < 1e-05 | – | < 1e-05 | < 1e-05
G38C C58A | < 1e-05 | < 1e-05 | < 1e-05 | < 1e-05
G38C C58G | < 1e-05 | < 1e-05 | – | < 1e-05
G38U G62C | < 1e-05 | – | – | < 1e-05
U31C G51U G59A C61U | < 1e-05 | – | – | –
G43A A52G A64C U65G | < 1e-05 | < 1e-05 | – | –
G13U A15G G40C U57C G62C | < 1e-05 | – | – | –
G32C A36G G44A U65G | < 1e-05 | – | < 1e-05 | –
